22 molecules from PubChem BioAssay (NCATS) can be followed below.

In general, IC50 refers to the concentration that gives 50% inhibition.

Some of the results follow. The main result of the screen is listed elsewhere. These columns were measured beside it and carry no call. The list favours compounds with an active or inconclusive main result. Words in brackets tell the shape of the fitted curve; partial curves, single points and poor fits give uncertain potencies.
Tags describe the fitted curve by direction and shape.

For this test, the target named is Catechol O-methyltransferase (Homo sapiens) (UniProt P21964). As to the kind of experiment: Confirmatory Screen for Target Class Profiling of Small Molecule Inhibitors of Methyltransferases (AID 1745852).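 Further: inhibitor potency for blocking SAH production.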 The following applies: MTase-Glo luminescence, SAH detection, recombinant enzyme; measured here: COMT inhibition potency.
UniProt P21964, sequence (P21964 whole entry, looked up): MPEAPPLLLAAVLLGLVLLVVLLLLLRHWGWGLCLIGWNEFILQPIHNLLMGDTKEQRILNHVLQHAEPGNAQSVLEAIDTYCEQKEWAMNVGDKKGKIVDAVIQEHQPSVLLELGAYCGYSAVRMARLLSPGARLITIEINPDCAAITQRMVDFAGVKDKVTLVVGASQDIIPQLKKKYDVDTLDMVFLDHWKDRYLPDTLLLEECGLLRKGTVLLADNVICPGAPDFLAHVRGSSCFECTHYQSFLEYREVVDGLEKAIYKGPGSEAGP
As for `C[C@@H]1O[C@@H](O[C@H]2[C@H](OC(=O)C34CCC(C)(C)CC3C3=CCC5C6(C)CC(O)C(O[C@@H]7O[C@H](CO)[C@@H](O)[C@H](O)[C@H]7O)C(C)(C(=O)O)C6CCC5(C)C3(CO)CC4)O[C@H](C)[C@H](O)[C@@H]2O)[C@H](O)[C@H](O)[C@H]1O[C@@H]1OC[C@@H](O)[C@H](O)[C@H]1O` (some centres not stated), the IC50 was 4.58 µM [falling, partial curve].
Under `COc1c(CCC(=O)O)cccc1O[C@@H]1O[C@H](CO)[C@@H](O)[C@H](O)[C@H]1O` stands 7.48 µM [falling, partial curve]; under `CC1(C)CC[C@]2(C(=O)O[C@@H]3O[C@H](CO)[C@@H](O)[C@H](O)[C@H]3O)CC[C@]3(C)C(=CCC4[C@@]5(C)CC[C@H](O[C@@H]6O[C@H](C(=O)O)[C@H](O)[C@H](O)[C@H]6O)C(C)(C)C5CC[C@]43C)[C@@H]2C1` (some centres not stated), 5.69 µM [falling, partial curve]; under `C[C@]12CC[C@@H]3c4ccc(O)c(O)c4CC[C@H]3[C@@H]1CCC2=O`, 12.1 µM [falling, full curve].
Under `C=C1C(=O)OC2/C=C(\CO)CC/C=C(\C=O)CC(OC(=O)CC(C)C)C12` (configuration not stated) stands 5.95 µM [falling, partial curve]; under `COC(=O)C1=CO[C@@H](O[C@@H]2O[C@H](CO[C@@H]3O[C@H](COC(=O)/C=C/c4cc(OC)c(O)c(OC)c4)[C@@H](O)[C@H](O)[C@H]3O)[C@@H](O)[C@H](O)[C@H]2O)[C@@H]2C(CO)=CC[C@H]12`, 1.6 µM [falling, full curve].
The result for `COc1cc(F)ccc1-c1cc(-c2ccc(=O)[nH]c2)c2cncn2c1` reads 5.55 µM [falling, full curve]; that for `C=C1C(=O)O[C@H]2CC(=C)[C@H]3CC[C@@](C)(O)[C@@H]3CC12` (some centres not stated), 0.961 µM [falling, full curve].
Turning to `CC1=CC(=O)CC(C)(C)C1(O)CCC(C)O` (configuration not stated), the IC50 is 12.1 µM [falling, partial curve].
The result for `CCN(CC)Cc1cnc2c(C(=O)N3CCCN4CCC[C@H]4C3)cnn2c1` reads 24.1 µM [falling, partial curve].
Regarding `CC1(C)CC[C@]2(C(=O)O[C@@H]3O[C@H](CO)[C@@H](O)[C@H](O)[C@H]3O)CC[C@]3(C)C(=CCC4[C@@]5(C)C[C@@H](O)[C@H](O)C(CO)(CO)C5CC[C@]43C)C2[C@@H]1O` (some centres not stated), the IC50 is 2.85 µM [falling, partial curve].
In the case of `C=C1C(=O)O[C@@H]2/C=C(\C)C(=O)/C=C/[C@](C)(O)C[C@@H](OC(=O)C(C)C)[C@@H]12`, the IC50 was 4.21 µM [falling, full curve].
Under `CC1=C(CCC(C)O[C@@H]2O[C@H](CO)[C@@H](O)[C@H](O)[C@H]2O)C(C)(C)CCC1=O` (some centres not stated) stands 6.67 µM [falling, partial curve]; under `CSC(=O)OCC1=C[C@@H]2OC(=O)C3=CO[C@@H](O[C@@H]4O[C@H](CO)[C@@H](O)[C@H](O)[C@H]4O)[C@H]1[C@@H]32`, 4.7 µM [falling, partial curve].
Under `C=C1C(=O)OC2C1CCC1(C)C(O)CC=C(C)C21` (configuration not stated) stands 10.8 µM [falling, full curve]; under `C=C1C(=O)OC2C1CCC1(C)C(O)CCC(=C)C21` (configuration not stated), 9.61 µM [falling, partial curve].
The result for `COc1cc(O)c(C(=O)CCc2ccc(O)cc2)c(O[C@@H]2O[C@H](CO)[C@@H](O)[C@H](O)[C@H]2O)c1` reads 3.73 µM [falling, full curve].
`CC1=C2CC3C(CCC3(C)O)C(C)(O)CC2OC1=O` (configuration not stated): the IC50 is 1.36 µM [falling, full curve].
Under `CC1(C)CC[C@]2(C(=O)O[C@@H]3O[C@H](CO)[C@@H](O)[C@H](O)[C@H]3O)CC[C@]3(C)C(=CCC4[C@@]5(C)C[C@@H](O)[C@H](O)[C@@](C)(CO)C5CC[C@]43C)C2[C@@H]1O` (some centres not stated) stands 0.452 µM [falling, full curve]; under `C=C1C(=O)OC2CC(C)C(CCC(C)O)=CCC12` (configuration not stated), 0.681 µM [falling, full curve].
The result for `CC(=O)OC/C=C(\C)C(CC1C(C)=C(OC(C)=O)C(=O)C2C(C)(C)C(O)CCC12C)OC(C)=O` (configuration not stated) reads 8.35 µM [falling, partial curve]; that for `CC1(C)CC[C@]2(C(=O)O[C@@H]3O[C@H](CO)[C@@H](O)[C@H](O)[C@H]3O)CC[C@]3(C)C(=CCC4[C@@]5(C)C[C@@H](O)[C@H](O)[C@@](C)(CO)C5CC[C@]43C)C2C1` (some centres not stated), 1.8 µM [falling, full curve].
